In PubChem BioAssay AID588855 (National Center for Advancing Translational Sciences (NCATS), 2011):
Several values for one entry are separate records, joined by “and”; a condition that tells them apart may be missing. Identical values can stand only once. Among all 410,000 compounds or so, about 5,000 (1.2%) were called active. Inconclusive results, whose numbers are uncertain, are shown with a selection of clear calls. The call rests on the fitted dose curve; in most records, active means well fitted inhibition curve with a large enough effect; inconclusive means small, poorly fitted or top-dose-only effect; inactive means no such curve, though single readings can be large or run the other way. Where the call is inconclusive, the potency comes from a doubtful curve fit.

assay: qHTS for Inhibitors of TGF-b; details: HepG2 CAGA-GFP TGF-b/SMAD3 reporter, GFP fluorescence, 18 h, TGF-beta stimulated, 500 pg/mL final; series mostly up to 46.1 µM; activity, negative = inhibition: at the top concentration; further: nearly all actives have a fitted effect of over 65% in size
Summary of the method: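 HEPG2 CAGA-GFP, 1000 cells/well; 2 h settle, 37 C; cpd via pin tool; TGF-b 500 pg/mL final; 18 h, 37 C; GFP imaging ex488/em500-530; %Activity normalised to -TGF-b and +DMSO controls; CRC fit, curve class.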
On the % scale 0 is the no-effect control and ±100 the full control effect; potency means the concentration at half of the fitted maximal effect; tags describe the fitted curve by direction and shape.

Row | Structure (SMILES) | Potency | activity, negative = inhibition
1 | COc1ccc(N2CCN(CCCNC(=O)Nc3ccccc3Cl)CC2)cc1 | inconclusive: 17.8 µM [inhibitor, single point] | 
2 | Cc1ccc(-c2nc3ccc([N+](=O)[O-])cc3[nH]2)cc1 | inconclusive: 35.5 µM [inhibitor, single point] | 
3 | CCOc1ccc(CN2C(=O)c3ccccc3Sc3ccc(C(=O)N4CCN(C)CC4)cc32)cc1 | inconclusive: 25.1 µM [inhibitor, single point] | 
4 | CCOC(=O)N1CCC(NC(=O)c2cc(C(=O)Nc3cccc(C(F)(F)F)c3)ccc2CO)CC1 | inconclusive: 11.2 µM [inhibitor, partial curve, poor fit] | 
5 | COC(=O)CC1Oc2ccc(C)cc2NC1=O (stereo not given) | inconclusive: 0.316 µM [inhibitor, partial curve, poor fit] | 
6 | O=[N+]([O-])c1cc([N+](=O)[O-])c2oc(-c3ccccc3)c(Br)c2c1O | inconclusive: 31.6 µM [inhibitor, single point] | 
7 | COc1ccc(CN2CCN(CCCc3ccccc3)C(CCO)C2)cc1OC (stereo not given) |  | inactive: -1.05%
8 | Cc1ccc(CN=c2c([N+](=O)[O-])nn(-c3cccc(C)c3)n2O)cc1 | inconclusive: 12.6 µM [inhibitor, partial curve, poor fit] | 
9 | COc1ccc(S(=O)(=O)N2Cc3ccccc3CC2C(=O)Nc2nccs2)cc1 (stereo not given) | inconclusive: 35.5 µM [inhibitor, single point] | 
10 | COc1cccc(C(=O)N2N=C(c3ccccn3)CC2(O)C(F)(F)F)c1 (stereo not given) | inconclusive: 14.1 µM [inhibitor, single point] | 
11 | CCCCN1C2=NC(c3ccccc3)CN2c2ccccc21 (stereo not given) |  | inactive: -5.29%
12 | COc1ccc(CCNc2cc(C)nc3c(-c4ccccc4)c(C)nn23)cc1OC | inconclusive: 0.891 µM [inhibitor, partial curve, poor fit] | 
13 | CCCOc1ccc(C(=O)N2CCCc3ccccc32)cc1 | inconclusive: 11.2 µM [inhibitor, partial curve] | 
14 | O=C(N/N=C/c1cc(Cl)ccc1O)C(=O)Nc1ccccc1OC(F)(F)C(F)F | inconclusive: 5.62 µM [inhibitor, single point] | 
15 | Cc1cc(C(=O)CSc2n[nH]c(N)n2)c(C)n1-c1ccc2c(c1)OCO2 | inconclusive: 12.6 µM [inhibitor, single point] | 
16 | CCC1(CC)Cc2ccccc2-c2nc(CCl)[nH]c(=O)c21 | inconclusive: 22.4 µM [inhibitor, single point] | 
17 | CN(C)S(=O)(=O)c1ccc2c(c1)c(=O)c(C(=O)N1CCN(c3cccc(Cl)c3)CC1)cn2C |  | inactive: -16.4%
18 | O=C(C1CCN(Cc2ccc(Cl)cc2)CC1)N1CCN(C(c2ccccc2)c2ccccc2)CC1 | inconclusive: 35.5 µM [inhibitor, single point] | 
19 | CCC(=O)Nc1nnc(S(=O)(=O)N(C)Cc2ccc(Cl)cc2)s1 |  | inactive: 0%
20 | COc1cccc(CN2CCN(C(=O)c3cccc4ccccc34)CC2)c1 | inconclusive: 14.1 µM [inhibitor, single point] | 
21 | COc1ccc(N2CCN(C(=O)Cn3ncc4c3-c3cc(C)ccc3OC4)CC2)cc1 |  | inactive: -10.5%
22 | Cc1ccc(C(=O)NCC(c2cccs2)S(=O)(=O)c2cccs2)cc1C (stereo not given) | inconclusive: 0.562 µM [inhibitor, full curve, poor fit] | 

Row | Structure (SMILES) | Potency | activity, negative = inhibition
23 | O=C(CN1C(=O)NC2(CCCCCC2)C1=O)Nc1ccc(S(=O)(=O)N2CCOCC2)cc1 | inconclusive: 1 µM [inhibitor, full curve, poor fit] | 
24 | Cc1cccc(NS(=O)(=O)c2ccc(C)c(C(=O)NCC(c3cccs3)N3CCOCC3)c2)c1 (stereo not given) |  | inactive: -8.74%
25 | CCOC(=O)c1cccc(NC(=O)c2c(NCc3ccccc3)[nH]c(=O)[nH]c2=O)c1 |  | inactive: -2.42%
26 | CC1CCN(CCCCOc2ccc(Cl)cc2)CC1 |  | inactive: 1.76%
27 | COc1cccc(CN(C)CC(=O)Nc2cc3oc4ccccc4c3cc2OC)c1 |  | inactive: -3.81%
28 | O=C(O)CCCN=C1NC2(CCCC2)Cc2ccccc21 |  | inactive: -1.78%
29 | COc1ccccc1CC(=O)N1CCN(c2ccc([N+](=O)[O-])cc2)CC1 | inconclusive: 31.6 µM [inhibitor, single point] | 
30 | Cc1ccc(S(=O)(=O)N2[C@H](c3ccc(Cl)cc3)CC(=O)[C@@H]3CN(S(=O)(=O)c4ccccc4C)[C@H](c4ccc(Cl)cc4)C[C@@H]32)cc1 |  | inactive: -12.2%
31 | COc1ccc(OC)c(NC(=O)CSC2=Nc3ccccc3C3=NC(CC(=O)NCc4ccco4)C(=O)N23)c1 (stereo not given) | inconclusive: 22.4 µM [inhibitor, single point] | 
32 | Cn1c(NCc2cccnc2)nc2cc(-c3cccc(C(F)(F)F)c3)sc2c1=O | inconclusive: 35.5 µM [inhibitor, single point] | 
33 | CCCNC(=O)COC(=O)c1n[nH]c2ccccc12 | inconclusive: 5.62 µM [inhibitor, single point] | 
34 | CCSc1nnc(NC(=O)c2ccc3c(c2)OCO3)s1 |  | inactive: -0.28%
35 | CCCC(=O)NCCc1nc2ccccc2n1Cc1c(F)cccc1Cl |  | inactive: -27.5%
36 | C[C@@H]1CN([C@@H](C)CO)C(=O)Cc2cc(NC(=O)Nc3ccc(C(F)(F)F)cc3)ccc2O[C@@H]1CN(C)S(=O)(=O)c1ccc(Cl)cc1 | inconclusive: 22.4 µM [inhibitor, single point] | 
37 | OC(c1ccccc1)(c1nc(-c2cc3ccccc3o2)cs1)C(F)(F)F (stereo not given) | inconclusive: 25.1 µM [inhibitor, single point] | 
38 | CC(C)NC(=O)c1ccc(CSCc2ccccc2Cl)o1 |  | inactive: -16.2%
39 | O=C1C=CC(=O)N1CCCCCCCCCCN1C(=O)C=CC1=O | active: 12.6 µM | 
40 | CC(=O)c1cccc(OCc2cc(C(=O)N3CC4C[C@@H]5CC3C[C@H](C4)C5)no2)c1 | inconclusive: 15.8 µM [inhibitor, partial curve] | 
41 | COC(=O)c1ccccc1NC1=C/C(=N\S(=O)(=O)c2cccs2)c2ccccc2C1=O | inconclusive: 10 µM [inhibitor, partial curve, poor fit] and inconclusive: 6.31 µM [inhibitor, full curve] | 
42 | Cc1ccc(S(=O)(=O)N2CCC3(CC2)OCCO3)s1 |  | inactive: -10.4%
43 | O=C(COc1ccc(Cl)cc1Br)Nc1cccc(S(=O)(=O)N2CCCC2)c1 | inconclusive: 28.2 µM [inhibitor, single point] | 
44 | Cn1nnnc1Sc1ncnc2scc(-c3ccc(-c4ccccc4)cc3)c12 | inconclusive: 20 µM [inhibitor, single point] | 

Row | Structure (SMILES) | Potency | activity, negative = inhibition
45 | O=C(NCc1ccco1)Nc1ccc2nsnc2c1 | inconclusive: 35.5 µM [inhibitor, single point] | 
46 | CCc1nc2ccc(C(=O)NCCOc3ccc(OC)cc3)cn2c1N(C)C(=O)COc1ccccc1 |  | inactive: -0.528%
47 | CC#CCN1c2ccccc2[C@]23C[C@@H](C(=O)OC)N(C(=O)NCCBr)C2=NC(C(=O)OC)=C(C(=O)OC)[C@H]13 | inconclusive: 3.98 µM [inhibitor, full curve, poor fit] | 
48 | Cc1ccc(N(CC(=O)NCc2ccc(F)cc2)S(=O)(=O)c2cccs2)cc1 | inconclusive: 0.708 µM [inhibitor, full curve] | 
49 | OCC1(Cc2ccc(Cl)cc2)CCN(Cc2ccc3nsnc3c2)CC1 |  | inactive: 3.39%
50 | NC(=O)CC(NC(=O)c1ccc(Br)cc1)c1ccc(N2CCN(c3ccccc3)CC2)c([N+](=O)[O-])c1 (stereo not given) | inconclusive: 3.55 µM [inhibitor, partial curve, poor fit] | 
51 | CC1CCCCN1CCNC(=O)C1CCCN(c2ncnc3c2nc2n3CCCCC2)C1 (stereo not given) |  | inactive: -5.11%
52 | COc1ccc(F)cc1S(=O)(=O)NCCc1csc(-c2ccc(Cl)cc2)n1 | active: 12.6 µM | 
53 | Cc1cc(C)c(OCC(=O)N(Cc2ccccc2)C2CCS(=O)(=O)C2)c(C)c1 (stereo not given) | inconclusive: 6.31 µM [inhibitor, single point] | 
54 | O=C(CSc1nnc(Cc2cccs2)n1-c1ccccc1)Nc1ccc2c(c1)OCCO2 |  | inactive: 6.97%
55 | CCCCOc1ccc(/C=C/C(=O)N(CC)CC(=O)Nc2ccc3c(c2)OCCO3)cc1OC | inconclusive: 3.55 µM [inhibitor, partial curve, poor fit] | 
56 | CC(C#Cc1c([C@@H](C)Oc2ccccc2)nnn1Cc1ccccc1)Oc1ccccc1 (stereo not given in full) | inconclusive: 12.6 µM [inhibitor, single point] | 
57 | COc1ccc(C2/C=C\CN(C(=O)C3CCCCC3)CC(=O)N2Cc2ccc(F)cc2)cc1 (stereo not given) | inconclusive: 35.5 µM [inhibitor, single point] | 
58 | CCOC(=O)C1CCCN(c2nc3ccccc3nc2C(C#N)C(=O)OCCOC)C1 (stereo not given) |  | inactive: 6.17%
59 | Cc1ccc(-c2nnn(CC(=O)N(CC(=O)NCC3CCCO3)c3ccccc3)n2)o1 (stereo not given) | inconclusive: 17.8 µM [inhibitor, single point] | 
60 | O=C(CCNS(=O)(=O)c1ccccc1)OCC(=O)c1ccc[nH]1 |  | inactive: -7.76%
61 | COc1ccc(-n2cnc3cc(NC(=O)c4ccco4)ccc32)cc1 | inconclusive: 22.4 µM [inhibitor, partial curve, poor fit] | 
62 | Cc1ccnc(Nc2nc(-c3c(C)nc4sccn34)cs2)c1 | inconclusive: 20 µM [inhibitor, partial curve, poor fit] | 
63 | COc1ccc(C(=S)NCS(=O)(=O)c2ccc(C)cc2)cc1 | inconclusive: 17.8 µM [inhibitor, single point] | 
64 | CCOC(=O)C1=CCN(S(=O)(=O)c2ccc(Cl)cc2)C1c1cccc(C)c1 (stereo not given) | inconclusive: 17.8 µM [inhibitor, partial curve, poor fit] | 
65 | COc1ccc(-c2ccc(-c3nnn(CC(C)=O)n3)cc2)cc1 | inconclusive: 5.01 µM [inhibitor, single point] | 
